In PubChem BioAssay AID284 (DTP/NCI, 2004):
Toxic doses and inconclusive results are not listed. Certain results were filed several times, with different values. This is not the full list of results. The source may hold further records. Values given together are repeated measurements (runs, samples, wells, individuals or studies).

Test system: BDF1 mice, L1210/MTX-resistant leukemia ip, survival T/C
Experiment: NCI In Vivo Anticancer Drug Screen. Data for tumor model L1210 Leukemia resistant to Methotrexate; NSC 740 (intraperitoneal) in B6D2F1 (BDF1) mice
Details: endpoint: mean survival time, higher = longer survival
Procedure: The antitumor activity of compounds was measured in mice bearing transplantable tumors. Survival or tumor size were measured and the results are expressed as the measurement made in the treated group (T) divided by the measurement made in the vehicle treated control group (C). The tumor model used in this assay is L1210 Leukemia resistant to Methotrexate; NSC 740 (intraperitoneal) in B6D2F1 (BDF1) mice

`O=C(Nc1ccc(C2=NCCCN2)cc1)c1ccc(C(=O)Nc2ccc(C3=NCCCN3)cc2)cc1` was tested, and the T/C (dose: 1.0 mg/kg/injection, schedule: Q01DX010 (ip), vehicle: other) was 106 % of control and 168 % of control.
With `O=C(Nc1ccc(C2=NCCN2)cc1)c1cccc(C(=O)Nc2ccc(C3=NCCN3)cc2)c1` the T/C (dose: 25.0 mg/kg/injection, schedule: Q01DX Z (ip), vehicle: methylcellulose (MC)) was 90 % of control and 159 % of control.
With `O=NN(CCCl)C(=O)NCCCl` the T/C (dose: 6.25 mg/kg/injection, schedule: Q01DX010 (ip), vehicle: saline) was 118 % of control and 182 % of control.
